The whole screen tested about 310,000 compounds, of which about 14,000 (4.5%) showed an effect of 50% or more. The effect is printed as a negative number. Some of the results follow.

The values below come from PMC4336329 (PLoS ONE, 2015).
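Note: peak tail current of the secondary pulse compared with the same well before compound.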

human ether-à-go-go-related gene (hERG) potassium channel, sequence (Q12809 whole entry, looked up): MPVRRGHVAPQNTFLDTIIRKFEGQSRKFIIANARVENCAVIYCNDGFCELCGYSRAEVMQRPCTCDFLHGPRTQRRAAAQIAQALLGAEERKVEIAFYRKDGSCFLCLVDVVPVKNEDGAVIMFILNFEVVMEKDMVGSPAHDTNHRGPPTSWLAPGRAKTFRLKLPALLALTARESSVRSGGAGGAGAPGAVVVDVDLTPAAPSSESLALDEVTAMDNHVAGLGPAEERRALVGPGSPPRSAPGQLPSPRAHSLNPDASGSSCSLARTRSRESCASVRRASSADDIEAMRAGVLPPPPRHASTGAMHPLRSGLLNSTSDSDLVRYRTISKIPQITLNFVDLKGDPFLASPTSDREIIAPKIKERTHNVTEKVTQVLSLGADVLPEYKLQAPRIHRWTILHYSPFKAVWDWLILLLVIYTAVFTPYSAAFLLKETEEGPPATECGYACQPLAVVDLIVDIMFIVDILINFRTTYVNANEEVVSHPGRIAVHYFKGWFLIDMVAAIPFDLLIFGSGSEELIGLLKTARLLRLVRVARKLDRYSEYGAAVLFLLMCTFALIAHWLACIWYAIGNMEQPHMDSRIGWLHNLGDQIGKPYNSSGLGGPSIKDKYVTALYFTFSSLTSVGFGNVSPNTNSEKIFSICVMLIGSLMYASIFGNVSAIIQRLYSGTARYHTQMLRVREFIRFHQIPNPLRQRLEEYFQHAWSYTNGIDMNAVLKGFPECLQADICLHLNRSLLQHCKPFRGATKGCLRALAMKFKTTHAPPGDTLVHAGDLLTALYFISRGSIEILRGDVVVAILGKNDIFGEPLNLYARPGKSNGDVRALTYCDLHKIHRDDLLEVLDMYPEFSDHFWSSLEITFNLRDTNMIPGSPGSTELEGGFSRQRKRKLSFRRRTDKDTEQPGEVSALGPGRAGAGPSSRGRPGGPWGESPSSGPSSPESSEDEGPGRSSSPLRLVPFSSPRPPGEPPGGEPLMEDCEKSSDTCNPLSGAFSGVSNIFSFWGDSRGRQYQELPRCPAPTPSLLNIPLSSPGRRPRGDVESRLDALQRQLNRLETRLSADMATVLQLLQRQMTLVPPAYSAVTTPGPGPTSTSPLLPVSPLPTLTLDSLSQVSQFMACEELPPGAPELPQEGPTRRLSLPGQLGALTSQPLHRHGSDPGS

This assay concerns the target human ether-à-go-go-related gene (hERG) potassium channel (human, UniProt Q12809). In words: primary screen, population patch clamp on CHO cells stably expressing hERG.
As to `COc1ccc(NC(=O)c2oc3ccccc3c2NC(=O)C2CC2)cc1`, the “hERG current change (%, negative = inhibition) at 10uM” value is -47.4%.
Under `CCC(=O)Nc1ccc(C(=O)N/N=C/c2cccnc2)cc1` stands 3.76%.
With `CCC(OC(=O)c1cc2sccc2n1C)C(=O)NCC1CCCO1` (centres unmarked) the figure was 9.11%.
For `COc1ccc(/C=N/Nc2cc(C)nc3c(C)cccc23)cc1`, the “hERG current change (%, negative = inhibition) at 10uM” value is reported as -57.5%.
As for `CCOC(=O)C(NC(=O)CC)(Nc1ccccc1OC)C(F)(F)F` (centres unmarked), the “hERG current change (%, negative = inhibition) at 10uM” value amounted to 10%.
With `COc1cc(C)nc(N2CCCC(C(=O)Nc3ccccc3Br)C2)n1` (centres unmarked) the figure was 8.77%; with `COc1cccc(CNC(=O)CCCn2nc(C)n3c(cc4sccc43)c2=O)c1`, -7.03%.
As to `Cc1cccc(-n2c(O)c(C=Nc3ccc(O)cc3)c3ccccc3c2=O)n1`, the “hERG current change (%, negative = inhibition) at 10uM” value is on record as -2.73%.
With `O=c1cc(C(F)(F)F)oc2c1ccc1ccccc12` the figure was 9.92%; with `CC(C)C(c1nnnn1Cc1ccc(F)cc1)N1CCN(C2CCCC2)CC1` (centres unmarked), -38.2%.
`CCc1ccc(NC(=O)NCCN2CCc3ccccc3C2)cc1`: the “hERG current change (%, negative = inhibition) at 10uM” value is listed as -54.7%.
Turning to `COc1ccc(NC(=O)CCNS(=O)(=O)c2cc(Br)ccc2Br)cc1S(N)(=O)=O`, the “hERG current change (%, negative = inhibition) at 10uM” value turned out to be 8.36%.
Regarding `COc1ccccc1-n1c(CCC(=O)O)ccc1-c1ccccc1`, the “hERG current change (%, negative = inhibition) at 10uM” value is recorded as -12.9%.
With `CCOC(=O)c1ccc(N2C(=O)CC(N3CC(C)OC(C)C3)C2=O)cc1` (centres unmarked) the figure was 18%; with `COc1cc(C(CC(=O)O)n2cnnn2)ccc1OC(C)C` (centres unmarked), 8.19%.
For the molecule `CCCCOc1ccc(OC(=O)Nc2cc(Cl)ccc2OC)cc1`, the “hERG current change (%, negative = inhibition) at 10uM” value is reported as 19.3%.
With `CC(C)CNC(=O)C(=O)Nc1cc2c3c(c1)CCC(=O)N3CCC2` the figure was 2.89%.
`CCCC/C=C/[C@H](c1ccccc1)[C@H](CO)Cc1cccnc1`: the “hERG current change (%, negative = inhibition) at 10uM” value is -7.78%.
Consider `CCCCOc1ccc(/C=N/NC(=O)c2nnn(-c3nonc3N)c2C)cc1`, for which the “hERG current change (%, negative = inhibition) at 10uM” value was 12.1%.
Consider `NS(=O)(=O)c1ccc(NC(=O)COc2ccc(Cl)cc2)cc1`, for which the “hERG current change (%, negative = inhibition) at 10uM” value is 1.02%.
`CCN(CC)CCCN(Cc1cc2cc3c(cc2[nH]c1=O)OCCO3)C(=O)Nc1ccc(F)cc1`: the “hERG current change (%, negative = inhibition) at 10uM” value is -61.6%.
As to `CCOC(=O)C1=C(C)NC2=C(C(=O)CCC2)C1c1cccs1` (centres unmarked), the “hERG current change (%, negative = inhibition) at 10uM” value is -1.2%.
In the case of `CCCCC(=O)/C=C/n1c(=S)oc2ccccc21`, the “hERG current change (%, negative = inhibition) at 10uM” value is 17.9%.
`Cc1ccc(CNC(=O)CCCn2nc(C)n3ccnc3c2=O)cc1`: the “hERG current change (%, negative = inhibition) at 10uM” value was found to be 17.1%.
With `COc1cc(NC(=O)C2CC(c3cccc(Br)c3)=NO2)cc(OC)c1OC` (centres unmarked) the figure was -11.6%; with `CC1CCC(NC(=O)CN(C)S(=O)(=O)c2cnc[nH]2)CC1` (centres unmarked), 12.9%.
With `Cc1cc(C)c(S(=O)(=O)N2CCCCC2)c(C)c1N(C)S(=O)(=O)c1ccccc1` the figure was -5.93%; with `COCCn1c(C)cc(C(=O)COC(=O)CNC(=O)c2ccccc2)c1C`, 15.8%; with `COc1ccc(-c2nnc(NC(=O)C(C)C)s2)c(OC)c1`, 12.3%.
For the molecule `Cc1cc(C)n(-c2nc3ccccc3nc2N2CCN(C(=O)c3ccccc3)CC2)n1`, the “hERG current change (%, negative = inhibition) at 10uM” value was -14.7%.
For the molecule `O=[N+]([O-])c1ccc(-c2cn3c(n2)SCC3)cc1`, the “hERG current change (%, negative = inhibition) at 10uM” value is listed as -7.01%.
Under `COc1cccc(NC(=O)c2ccc(S(=O)(=O)N3CCCC3)cc2)c1` stands 6.79%.
For `Cc1nc(-c2ccc(C(=O)Nc3cc(S(N)(=O)=O)ccc3C)cc2)cs1`, the “hERG current change (%, negative = inhibition) at 10uM” value amounted to 1.21%.
Under `CC(Sc1ccccc1)C(=O)N1CCN(S(=O)(=O)c2ccccc2C(F)(F)F)CC1` (centres unmarked) stands -24.1%; under `Cc1cc2nc(-c3ccc[nH]c3=O)n(Cc3ccccc3F)c2cc1C`, 13.9%; under `CC(C)CC1NC(=O)N(CC(=O)NC2CCCc3ccccc32)C1=O` (centres unmarked), 5.89%.
With `COc1ccc(-n2c(C)cc(/C=C3\C(=O)NN(c4ccccc4)C3=O)c2C)cc1` the figure was 10.6%.
Regarding `CC1=C([N+](=O)[O-])C(c2ccccc2Cl)NC(=O)N1C` (centres unmarked), the “hERG current change (%, negative = inhibition) at 10uM” value is recorded as 0.934%.
Under `Cc1c(N=Cc2cccs2)c(=O)n(-c2ccccc2)n1C` stands 10.7%; under `O=C(N/N=C1/CCS(=O)(=O)c2ccc(F)cc21)c1ccccn1`, 14.6%; under `Nc1nc(-c2nc3ccccc3[nH]2)cs1`, 4.62%.
Regarding `Cc1cccc2cc(CN(Cc3cccs3)C3(c4nnnn4C4CCCC4)CCCC3)c(=O)[nH]c12`, the “hERG current change (%, negative = inhibition) at 10uM” value is recorded as -11.3%.
With `COc1ccc(CN2CCN(C(C)C)C(CCO)C2)cc1Cn1cncn1` (centres unmarked) the figure was 34.1%; with `Cc1cccc(OCCOC(=O)c2c(-c3ccccc3)noc2C)c1`, 13.4%; with `COc1ccc(S(=O)(=O)N2CCC(C(=O)NCc3ccccn3)CC2)cc1Cl`, -18.2%.
Under `COc1ccccc1NS(=O)(=O)c1cc(C(=O)N2CCN(C/C=C/c3ccccc3)CC2)ccc1C` stands -47.1%.
With `CC(=O)c1nnn(-c2ccc(Cl)cc2C#N)c1C` the figure was 7.07%; with `O=C1NC(=O)C(=Cc2ccc(-c3ccc(F)cc3O)o2)C(=O)N1`, 16.9%.
Turning to `COc1ccc(C(C(=O)NC2CCCC2)N(CCCO)C(=O)c2snc(C(N)=O)c2N)cc1` (centres unmarked), the “hERG current change (%, negative = inhibition) at 10uM” value is reported as -20.2%.
Under `CN1CCc2cc3c(cc2[C@H]1[C@@H]1OC(=O)c2c1ccc1c2OCO1)OCO3` stands 7.02%.
For `CCOC(=O)C1CCN(C(=O)C2CCCN(S(=O)(=O)c3ccc(OC)c(Cl)c3)C2)CC1` (centres unmarked), the “hERG current change (%, negative = inhibition) at 10uM” value is reported as -67.2%.
For `CCOC(=O)N1CCN(CC(O)COc2ccc(C(C)C)c(C)c2)CC1.Cl` (centres unmarked), the “hERG current change (%, negative = inhibition) at 10uM” value was -4.24%.
As to `Cc1ccc(NC(=O)c2cc(=O)c3ccccc3o2)cc1S(=O)(=O)N1CCCCC1`, the “hERG current change (%, negative = inhibition) at 10uM” value was -3.72%.
Consider `COc1ccc(C(CNC(=O)c2cccc(S(=O)(=O)NCc3ccccc3)c2)N2CCOCC2)cc1` (centres unmarked), for which the “hERG current change (%, negative = inhibition) at 10uM” value is recorded as -40%.
Under `COC(=O)NC1CCS(=O)(=O)C1` (centres unmarked) stands -11.2%; under `CCOc1ccc(-n2c(SCC(=O)Nc3ccc4c(c3)OCCO4)nc3c(c2=O)SCC3)cc1`, -5.48%.
